# Measured values as given in ChEMBL document CHEMBL4888484, “Replenishing the malaria drug discovery pipeline: Screening and hit evaluation of the MMV Hit Generation Library 1 (HGL1) against asexual blood stage Plasmodium falciparum ,using a nano luciferase reporter read-out” (2022).
# Screen size: about 150,000 compounds; about 540 (0.36%) showed an effect of 50% or more. Some of the results follow.
# System: Plasmodium falciparum
# Test: Primary screen in NF54 nanoGlo assay, in single point, at 2uM, 72h; a lower Z score goes with more inhibition
# Assay type: functional, Erythrocyte
# Conditions: timepoint 72 hour
Structure (SMILES),% Inhibition [%],Z score
N[C@H]1CCCN(C(=O)c2ccc3ncccc3c2)C1,-13,1.87
Cc1cccc(NC(=O)N2CCCN(c3nc4cc(Cl)ccc4n4cccc34)CC2)c1C,-9,1.31
Cc1cccc(C(=O)N2CCC3(CCCC3)C2)c1F,-13,1.39
CC(C)N1C2CCC1CN(C(=O)c1ccccc1-n1cnnn1)CC2 (centres undefined),-6,0.61
CO[C@@](F)(C(=O)Nc1ccc(OC(F)(F)Cl)cc1)C(F)(F)F,-9,1.15
Cc1nccc(NC(=O)C2(S(C)(=O)=O)CCCC2)c1Cl,-3,0.46
CN(Cc1ccncc1)C[C@@H]1CC=CCC1,0,0.05
CC(NCc1ccccc1)C1Cc2ccccc21 (centres undefined),7,-1.3
CC(C)(NC(=O)C1CCN(c2ccc3nncn3n2)CC1)c1cccs1,-3,0.37
COCCN1C(=O)CN(S(=O)(=O)c2ccccc2)C[C@@]1(C)C(=O)NCc1ccc(F)cc1,-3,0.44
COc1cc(C(=O)NC2(c3ccccc3)COC2)sn1,-1,0.26
CCN(CC)CCOc1cc(Cl)ccc1Cl,8,-1.08
CC1(C)Cc2nc(C(C)(C)C)ncc2[C@@H](NCC2CC2)C1,3,-0.32
CCn1cc(CN(C)CCc2ccccn2)cn1,-7,0.86
COc1ccc(CC(=O)NCc2csc(C)n2)cc1,13,-1.51
Cc1csc([C@@H](C)CNC(=O)NCc2ccc(C#N)cc2F)n1,-11,1.16
Cc1cc(F)ccc1N1CCCC(N2CCCC(C(=O)O)C2)C1=O (centres undefined),-8,1.21
O=C(CC[C@H]1CCCN(C(=O)c2n[nH]c3c2CCC3)C1)N1CCN(c2ccccn2)CC1,-16,2.11
CCOc1ncccc1-c1ccnn1C(C)C,-19,2.42
Cc1noc(C)c1CN1CCOCS1(=O)=O,-9,1.71
CC(C)c1ccc(C(=O)N2CCC[C@@]3(CCCO3)CC2)c(=O)[nH]1,-1,0.18
CC(=O)c1cccc(NC(=O)Cc2c(C)nc3nc(C4CCCCC4)nn3c2C)c1,42,-4.76

Structure (SMILES),% Inhibition [%],Z score
CN(CC1(O)CCCC1)C(=O)c1cc(Cl)cc(F)c1N,2,-0.36
CC(C)CN(C(=O)c1cncc(Br)c1)C(C)C,6,-1.19
CCN1CCN(CCC(=O)N[C@@H](C)c2ccc(Cl)s2)CC1,4,-0.43
Cc1ccc(CNC(=O)c2cccc(Oc3cc(-c4ccc(F)cc4)ncn3)c2)cc1,-4,0.47
O=S1(=O)C=C(N2CCN(C3CCCCC3)CC2)c2ccccc21,-28,3.29
CC(C)NC(=O)COC(=O)c1cc(F)ccc1Cl,28,-3.79
CC(C)c1[nH]ncc1C(=O)NC(C)C1CCN(Cc2ccccc2)C1 (centres undefined),2,-0.29
CC(C)(C)OC(=O)N1CCC(CC(=O)N2CCOC3CCCCC32)CC1 (centres undefined),7,-0.88
CCOc1ccc(-n2nc(CO)c(C(=O)NC3CC3)n2)cc1,-9,1.62
COc1ccc(Cl)c(N2CCN(C(=O)[C@H]3CCCN(C(N)=O)C3)CC2)c1,-3,0.43
Cc1ccc(-c2cccc(CN3CCC(CCC(=O)NC[C@H]4CCCO4)CC3)c2)o1,8,-1.1
Cc1csc(CN(C)Cc2sc(N(C)C)nc2C)n1,-5,0.58
O=C(c1cccs1)N1CCN(Cc2noc3ccccc23)CC1,-15,1.73
CC(CCN1CCOCC12CCOC2)c1ccccc1 (centres undefined),8,-1.48
CC(C)Cc1nnc(NC(=O)NC2C3CCOC3C23CCC3)s1 (centres undefined),-2,0.31
Cc1cc(C(=O)N2CCO[C@H](c3ccccc3)C2)c(C)o1,-3,0.4
O=C(COc1ccc2c(c1)OCO2)NCCCn1ncccc1=O,-19,3.69
CCN1CCN(C(=O)CC2CCN(c3ncnc4c3ncn4C)CC2)CC1,5,-0.87
COc1cc2c(cc1OC)[C@@H](NC(=O)c1cc(C(C)C)[nH]n1)CC2,-9,1.21
O=C(NCCCN1CCOCC1)c1ccc2c(c1)NC(=O)[C@@H]1CCCCN21,-11,1.62
COc1ccc(OCC(=O)/N=C(\N)Nc2nc3ccccc3o2)cc1,0,0.03
COc1ccc(-c2nc(Cn3cnc4ccccc4c3=O)no2)c(OC)c1,-9,1.05

Structure (SMILES),% Inhibition [%],Z score
Cc1nccc(N2CCOC[C@@H]2CC(C)C)n1,-11,1.57
O=C(NS(=O)(=O)CC1CC1)c1cccc(F)c1Cl,-5,0.61
C=CCC[C@@H](CN1CCC(C(=O)O)CC1)Oc1ccc(Cl)cn1,-4,0.74
COc1cccc(CNS(=O)(=O)c2c(C)[nH]c(C)c2-c2nc(C)no2)c1,-4,0.72
COc1ccc(C(=O)NCCc2ccc(S(N)(=O)=O)cc2)nn1,0,-0.03
CN(C)c1cc(C(=O)N[C@H](c2ccccc2)c2cc3ccccc3o2)ccn1,-5,0.72
Cc1c(C(=O)N2CCC(C)CC2)c(S(=O)(=O)N2CCCCC2)c(C)n1C,-4,0.8
CC1CN(C(=O)NCc2ccnn2C)CC(c2ccsc2)O1 (centres undefined),8,-1.23
O=C(NCc1cccnc1N1CCOCC1)c1ccsc1,-5,0.53
CC(C)CN(C(=O)Cn1ccc(=O)cc1)C(C)C,1,-0.09
CCOc1ccc(CC(=O)N2C[C@@H]3C[C@H]2C[C@@H]3NC(=O)c2cccs2)cc1,-6,0.84
CN(C)c1cncc(NC(=O)c2cccc(N)c2)c1,14,-1.63
C[C@H]1CN(Cc2c(Cl)cccc2N2CCOCC2)CCN1S(C)(=O)=O,20,-2.31
CN(C(=O)Cc1ccc(F)cc1)[C@H]1CC(=O)N(Cc2ccccc2)C1=O,-6,0.88
CCc1cc(NC(=O)NC(C)(C)CO)ccc1C,-15,1.72
Cc1ccc(N(C)C)cc1NC(=O)N1CCNC(=O)[C@@H]1c1ccc(F)cc1,-8,1.27
CO[C@@H](CN=C(N)N1CCOCC1)c1cccc(Cl)c1,12,-2.2
CC(=O)N[C@H]1C[C@H]2CN(S(=O)(=O)Cc3ccccc3Cl)[C@@H](CC(C)C)C(=O)N2C1,-15,1.3
CC(O)CNC1CCN(C)C(c2ccc(Br)cc2)C1 (centres undefined),8,-1.61
CC1CC1c1ccc(CNCC2CNc3ccnn3C2)o1 (centres undefined),-1,0.14
Cc1nn(C)c(Cl)c1S(=O)(=O)N1C[C@H]2CC=CC[C@H]2C1,-7,1.43
Cn1c(Cn2cncn2)nnc1C1CCN(C(=O)OCC(C)(C)C)CC1,-6,1

Structure (SMILES),% Inhibition [%],Z score
CN1CCN(C(=O)CCc2cccs2)CC1,-4,0.58
O=C(NC1CC2CCC1O2)c1cc(C2CC2)nc2ccccc12 (centres undefined),4,-0.41
Cc1ccc2sc(C(=O)N3CCCN(C(N)=O)CC3)cc2c1,4,-0.78
COc1ccc2[nH]c(CN3C[C@H](OC(C)C)[C@@H](O)C3)c(C)c2c1,-5,1.01
CN(Cc1cnc2ccc(Br)cn12)C[C@H]1CCOC1,9,-0.9
CCn1c(=S)sc2c(N3CCCCC3)nc(-c3ccccc3)nc21,5,-0.68
Cc1cc(C)cc(C(=O)N2c3ccccc3C[C@H]2c2nc(C3CC3)no2)c1,-8,1
CC(C)N(C)C(=O)N1CCC2(CC1)COCCO2,-5,0.4
CN(Cc1sc2ccccc2c1Cl)S(=O)(=O)N1CCCC1,-11,1.74
O=C(NC1CCCC1)c1ccc(COc2ccc3ccccc3c2)o1,6,-0.79
CC1(C)C[S@+]([O-])CCN1Cc1nc(-c2ccccc2)no1,-3,0.52
CCC1Oc2cc(C(C)NCc3cc(C)on3)ccc2NC1=O (centres undefined),3,-0.5
O=C(NCc1ccc(O)cc1)[C@H]1CCCN(C2CCN(Cc3cccnc3)CC2)C1,-7,1.01
CC(C)c1nsc(CN2CCC[C@H](n3ccnn3)C2)n1,-10,1.83
O=C(NC1CCCC1)C1CCN(C(=O)c2ccco2)CC1,-12,1.7
CN(CC(=O)N1CCC[C@@H]1CO)S(=O)(=O)c1ccc2c(c1)OCCCO2,-12,1.33
Cc1n[nH]c(C)c1CC(=O)NC(Cc1ccccc1)[C@H]1C[C@H](O)C1 (some centres undefined),12,-1.21
Cc1ncsc1C(=O)N1CCC2(CC1)CC(=O)N(C[C@H]1CCCO1)C2,-3,0.45
O=C(NC1CC2CCC1C2)c1cc2n(n1)CCN(Cc1c(F)cccc1Cl)C2=O (centres undefined),-2,0.24
O=C1NCCN(Cc2ccccc2OC2CCCC2)[C@H]1c1ccc(F)cc1,-6,1.06
COc1cccc(C(=O)NC(C)C2CN(C)CCN2C)c1O (centres undefined),-19,2.75
